From PubChem BioAssay AID651820 (National Center for Advancing Translational Sciences (NCATS), 2012)
About 12,000 (3.5%) of roughly 340,000 compounds were called active. The inconclusive results got no clear call from the source; some entries with a clear call stand among them for comparison. The call rests on the fitted dose curve; in most records, active means well fitted inhibition curve with a large enough effect; inconclusive means small, poorly fitted or top-dose-only effect, or another doubt; inactive means no such curve, though single readings can be large or run the other way. No potency is given beside an inconclusive call; the fits are too rough.

Experiment: qHTS Assay for Inhibitors of Hepatitis C Virus (HCV)
Conditions: Huh7.5.1 HCVcc-Cre (HCVcc is cell-culture hepatitis C virus) infection, luciferase reporter, 44 h; series mostly up to 41.8 µM
In short: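 Luciferase read-out (15 sec integration) after a 15 min room-temperature substrate step quantifies HCVcc-Cre infection. Cells, 1,000 per well, had compound added 4 h post-plating, then virus at ~0.5 moi, and were cultured 44 h.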
Potency means the concentration at half of the fitted maximal effect; tags describe the fitted curve by direction and shape.

Q: With `COC(=O)c1ccc([C@@H]2C[C@H]3CN(Cc4cccnc4)C(=O)[C@]34CCCN24)cc1` as the compound, how does the Potency read?
A: Its Potency is “inactive”.

Q: Which Potency does the source give for `O=C(CN1CCN(CC(=O)Nc2ccc(-c3ccccc3)cc2)CC1)Nc1ccc(F)cc1` here?
A: The Potency was “inactive”.

Q: Which Potency does the source give for `O=C(CCCCCN1C(=O)c2ccccc2C1=O)Nc1nccs1` here?
A: The Potency was “inactive”.

Q: For `S=C(Nc1ccccc1Cl)NC1CCN(Cc2ccccc2)CC1`, which Potency is on record?
A: Its Potency is inconclusive [inhibitor, single point].

Q: With `O=C(C=P(c1ccccc1)(c1ccccc1)c1ccccc1)c1ccccc1-c1ccccc1C(=O)C=P(c1ccccc1)(c1ccccc1)c1ccccc1` as the compound, how does the Potency read?
A: The Potency was inconclusive [inhibitor, full curve].

Q: Which Potency does the source give for `O=C(NCC1CCOCC1)c1cc(COc2cccc(C(F)(F)F)c2)on1` here?
A: Its Potency is inconclusive [inhibitor, single point].

Q: Which Potency does the source give for `CCN1CCN(c2cc(C)c3cc(NC(=S)N4CCCC(C)C4)ccc3n2)CC1` (configuration not stated) here?
A: The Potency was inconclusive [inhibitor, partial curve].

Q: Which Potency does the source give for `O=C(NNc1nc(N2CCOCC2)nc(N2CCOCC2)n1)c1ccccc1` here?
A: Its Potency is “inactive”.

Q: With `Oc1ccc(F)c2cccnc12` as the compound, how does the Potency read?
A: The Potency was inconclusive [inhibitor, single point].

Q: For `COc1cc(C(=O)NC2=C(C#N)CCC2)cc(OC)c1OC`, which Potency is on record?
A: The Potency was inconclusive [inhibitor, single point].

Q: Which Potency does the source give for `CC1CCc2nn(CC(=O)NC3CCCC(C)C3C)cc2C1` (configuration not stated) here?
A: The Potency was inconclusive [inhibitor, single point].

Q: With `CCn1nc(-c2ccccc2)c2nc3ccccc3nc21` as the compound, how does the Potency read?
A: Its Potency is “inactive”.

Q: Which Potency does the source give for `O=C(Nc1ccc(Br)cc1)Nc1cnccn1` here?
A: The Potency was “inactive”.

Q: For `O=S(=O)(c1ccccc1)N1CCN=C1SCc1ccc(Cl)cc1`, which Potency is on record?
A: Its Potency is “inactive”.

Q: With `Cc1ccc(NC(=O)CSc2ncccn2)cc1S(=O)(=O)N1CCCCC1` as the compound, how does the Potency read?
A: The Potency was inconclusive [inhibitor, partial curve].

Q: With `Cc1cc(C)n(CC(O)COc2ccc(F)cc2)n1` (configuration not stated) as the compound, how does the Potency read?
A: The Potency was “inactive”.

Q: Which Potency does the source give for `CC(OC(=O)c1cccc(-n2cnnn2)c1)C(=O)NCc1ccccc1` (configuration not stated) here?
A: The Potency was “inactive”.

Q: Which Potency does the source give for `CCCCNS(=O)(=O)c1ccc2nc(SCC(=O)Nc3ccccc3)[nH]c2c1` here?
A: Its Potency is inconclusive [inhibitor, partial curve].

Q: For `COc1cc(NC(=O)c2cc(C3CC3)on2)c(OC)cc1Cl`, which Potency is on record?
A: Its Potency is inconclusive [inhibitor, single point].

Q: Which Potency does the source give for `CCc1sc(NC(=O)CN2CCOCC2)nc1-c1ccccc1` here?
A: The Potency was inconclusive [inhibitor, single point].

Q: Which Potency does the source give for `C/C(=N\Nc1ccc([N+](=O)[O-])cc1)c1ccco1` here?
A: The Potency was “inactive”.

Q: With `CCCC(=O)Nc1cc2c(cc1C(C)=O)OCCO2` as the compound, how does the Potency read?
A: Its Potency is inconclusive [inhibitor, full curve].

Q: With `COc1ccccc1C1N(c2ccc(F)cc2)C(=O)C2CCCN21` (configuration not stated) as the compound, how does the Potency read?
A: Its Potency is inconclusive [inhibitor, single point].

Q: With `CN(CC(=O)NCc1ccccc1Cl)S(=O)(=O)c1ccc2c(c1)n(C)c(=O)c(=O)n2C` as the compound, how does the Potency read?
A: The Potency was “inactive”.

Q: For `Nc1ccn(CC(=O)NCCNc2ccc([N+](=O)[O-])cn2)c(=O)n1`, which Potency is on record?
A: Its Potency is inconclusive [inhibitor, full curve].

Q: Which Potency does the source give for `CC(=O)N1CCN(c2ccccc2NC(=O)COc2ccc(Cl)cc2Cl)CC1` here?
A: Its Potency is inconclusive [inhibitor, partial curve, poor fit].

Q: Which Potency does the source give for `Cc1nc(-c2nc(-c3c(C(=O)NN)noc3C)cs2)cs1` here?
A: Its Potency is “inactive”.

Q: With `C[n+]1ccc(/C=N/Nc2nc(Cl)c(C#N)c(Cl)c2Cl)cc1` as the compound, how does the Potency read?
A: The Potency was inconclusive [inhibitor, single point].

Q: Which Potency does the source give for `CCOC(=O)C1CCN(C(=O)Cn2nc(C)n3nc(-c4ccc(CC)cc4)cc3c2=O)CC1` here?
A: The Potency was inconclusive [inhibitor, full curve, poor fit].

Q: For `O=C(Nc1ccc2c(c1)OCO2)c1ccc(Br)o1`, which Potency is on record?
A: The Potency was “inactive”.

Q: Which Potency does the source give for `O=C1C=CN2CCCCC2CC1` (configuration not stated) here?
A: The Potency was inconclusive [inhibitor, single point].

Q: With `C/C(=N\NC(=O)c1cc2c(s1)CCC(C)C2)c1ccc[nH]1` (configuration not stated) as the compound, how does the Potency read?
A: The Potency was “inactive”.

Q: For `CCN(CC)C(=O)[C@H]1C[C@H](CC(=O)NCc2cccc(C(F)(F)F)c2)C(=O)N2CCc3c([nH]c4cc(-c5ccco5)ccc34)[C@]12C`, which Potency is on record?
A: Its Potency is inconclusive [inhibitor, full curve].

Q: For `COc1ccc(S(=O)(=O)N(CC(=O)NCCSc2ccccn2)c2ccccc2)cc1`, which Potency is on record?
A: The Potency was inconclusive [inhibitor, partial curve].

Q: With `O=C(CCN1C(=O)c2ccccc2S1(=O)=O)Nc1ccc2c(c1)OCCO2` as the compound, how does the Potency read?
A: The Potency was “inactive”.

Q: Which Potency does the source give for `COc1ccc(NS(=O)(=O)c2cc(NC(=O)c3ccccc3)ccc2N2CCOCC2)cc1` here?
A: The Potency was inconclusive [inhibitor, partial curve].

Q: Which Potency does the source give for `CCCN1C(=O)/C(=C\C=C2\N(CC)c3ccccc3C2(C)C)SC1=S` here?
A: The Potency was inconclusive [inhibitor, partial curve].

Q: With `O=C(Nc1ccc2ccccc2c1)c1ccccc1[N+](=O)[O-]` as the compound, how does the Potency read?
A: The Potency was inconclusive [inhibitor, single point].

Q: For `COc1ccc(OC)c(S(=O)(=O)N2CCC(C(=O)NCc3ccccn3)CC2)c1`, which Potency is on record?
A: The Potency was “inactive”.

Q: Which Potency does the source give for `c1cc(C(c2nnnn2C2CCCC2)N2CCOCC2)ccn1` (configuration not stated) here?
A: The Potency was “inactive”.

Q: Which Potency does the source give for `CCOC(=O)c1sc(NC(C)=O)cc1C` here?
A: The Potency was “inactive”.

Q: With `CCNc1nc(Sc2ccc(C)cc2)cc(C(F)(F)F)n1` as the compound, how does the Potency read?
A: The Potency was inconclusive [inhibitor, partial curve].

Q: Which Potency does the source give for `CCCn1c(=O)c2ccccc2n2c(SCCOc3ccc(OC)cc3)nnc12` here?
A: The Potency was “inactive”.

Q: Which Potency does the source give for `Cc1ccc(NC(=O)CCOc2ccccc2)cc1` here?
A: The Potency was “inactive”.

Q: With `COc1ccc(-n2nc([N+](=O)[O-])c(=NC3CCN(Cc4ccccc4)CC3)n2O)cc1` as the compound, how does the Potency read?
A: The Potency was inconclusive [inhibitor, partial curve].

Q: For `CN(C)S(=O)(=O)c1ccc(Cl)c(NC(=O)COC(=O)/C=C/c2ccc(S(=O)(=O)N3CCOCC3)cc2)c1`, which Potency is on record?
A: The Potency was “inactive”.

Q: Which Potency does the source give for `COc1ccc(N(CC(=O)Nc2ccc3c(c2)OCO3)S(=O)(=O)c2ccccc2)cc1OC` here?
A: Its Potency is inconclusive [inhibitor, single point].

Q: Which Potency does the source give for `O=C(CC1OC(=O)c2ccccc21)Nc1ccc(Cl)c(S(=O)(=O)N2CCCCC2)c1` (configuration not stated) here?
A: The Potency was inconclusive [inhibitor, partial curve].

Q: With `CCOc1ccccc1N1CCN(CC(=O)Nc2ccnn2C2CCCC2)CC1` as the compound, how does the Potency read?
A: The Potency was active: 12.6 µM.

Q: Which Potency does the source give for `CC(=O)Nc1sc(C)c(C)c1C(=O)OCCOc1ccccc1` here?
A: The Potency was inconclusive [inhibitor, single point].

Q: For `CCOC(=O)N1CCN(C(=O)/C(=C/c2ccc(F)cc2)NC(=O)c2ccccc2)CC1`, which Potency is on record?
A: Its Potency is “inactive”.

Q: For `Cc1cc(NC(=O)CN2CCN(S(=O)(=O)c3ccc4ccccc4c3)CC2)no1`, which Potency is on record?
A: The Potency was “inactive”.

Q: Which Potency does the source give for `O=[N+]([O-])c1c(Nc2ccccc2O)cc(N2CCOCC2)c2nonc12` here?
A: The Potency was inconclusive [inhibitor, partial curve].

Q: Which Potency does the source give for `Cn1c(-c2cccc([N+](=O)[O-])c2)[n+](C)c2ccccc21` here?
A: Its Potency is “inactive”.

Q: Which Potency does the source give for `Cc1cc(N2CCN(C)CC2)nc2ccc(NC(=S)N3CCOCC3)cc12` here?
A: The Potency was inconclusive [inhibitor, partial curve].

Q: Which Potency does the source give for `CCn1c(=O)n(CC)c2cc(N3CCCC3)c(NC(=O)c3ccccc3F)cc21` here?
A: Its Potency is active: 12.6 µM.

Q: With `COc1cccc(CNC(=O)C(=O)NCCC2CCCCN2S(=O)(=O)c2ccc(C)cc2)c1` (configuration not stated) as the compound, how does the Potency read?
A: Its Potency is inconclusive [inhibitor, partial curve].

Q: Which Potency does the source give for `COCCn1c(C)cc(/C=N/NC(=O)c2cc3ccccc3cc2O)c1C` here?
A: The Potency was inconclusive [inhibitor, full curve, poor fit].

Q: Which Potency does the source give for `CCOc1ccc(N(Cc2cc3ccc(C)cc3[nH]c2=O)S(=O)(=O)c2ccccc2)cc1` here?
A: Its Potency is inconclusive [inhibitor, partial curve].

Q: Which Potency does the source give for `Cc1cc2nc(N3CCN(C(=O)c4cccs4)CC3)sc2cc1C` here?
A: Its Potency is inconclusive [inhibitor, single point].

Q: With `O=C(NCc1cccs1)c1ccc(Cl)s1` as the compound, how does the Potency read?
A: The Potency was “inactive”.

Q: With `CN(C)c1ccc(-n2cc3c(=O)n(C)c(=O)n(C)c3c2)cc1` as the compound, how does the Potency read?
A: Its Potency is inconclusive [inhibitor, single point].

Q: Which Potency does the source give for `CNC(=O)c1c(NC(=O)c2ccc(S(=O)(=O)N3CC(C)OC(C)C3)cc2)sc2c1CCN(C(C)C)C2` (configuration not stated) here?
A: The Potency was inconclusive [inhibitor, single point].

Q: With `C=CCSC1=Nc2sccc2C2=NC(=O)CN12` as the compound, how does the Potency read?
A: Its Potency is “inactive”.

Q: For `C=CCOC(=O)c1[nH]c2c(c1C)C(=O)CC(c1cc(OC)c(OC)c(OC)c1)C2` (configuration not stated), which Potency is on record?
A: Its Potency is inconclusive [inhibitor, full curve].

Q: For `Cn1c(=O)c2c(nc(N/N=C/c3ccc(OC(=O)c4ccco4)cc3)n2Cc2ccc(F)cc2)n(C)c1=O`, which Potency is on record?
A: Its Potency is inconclusive [inhibitor, full curve, poor fit].

Q: With `Cc1ccc(-n2c(SCC(=O)Nc3ncc(Cl)cc3Cl)nc3ccccc32)cc1` as the compound, how does the Potency read?
A: The Potency was inconclusive [inhibitor, partial curve].

Q: With `Clc1ccc(OCCN2CCCCC2)cc1Cl` as the compound, how does the Potency read?
A: Its Potency is “inactive”.

Q: For `Cc1ccc(C2C(C#N)=C(N)Oc3n[nH]c(-c4cccnc4)c32)o1` (configuration not stated), which Potency is on record?
A: The Potency was “inactive”.

Q: With `CC1CC1C(=O)OCC(=O)Nc1ccc(N=Nc2ccccc2)cc1` (configuration not stated) as the compound, how does the Potency read?
A: Its Potency is inconclusive [inhibitor, single point].

Q: Which Potency does the source give for `Cc1ccccc1NC(=S)N1CCN(c2ccccc2Cl)CC1` here?
A: Its Potency is inconclusive [inhibitor, single point].

Q: With `CCN(CC)C(=O)CSc1nnc(-c2cc(OC)cc(OC)c2)o1` as the compound, how does the Potency read?
A: Its Potency is inconclusive [inhibitor, partial curve].
